Measured values from the supplement of paper PMC10126150.
Values marked as one replicate rest on one cluster of the flow cell; about a third of the high ones do not repeat.
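Further: ATP exposure 15 min at 22 °C before imaging.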

These sequences were tested on ATP (assay: switch fluorescence ratio, 500 uM ATP over buffer (Cy3 cluster intensity, sum of 5 cycles each) (fold (ratio)); higher = stronger signal-on switching upon ATP binding; sequences stand for … in TCGTCGGCAGCGTCAGATGTGTATAAGAGACAGTTTTTTTTTTTTTTTTTTTTTTTTT…TC). Details: aptamer strand: ATP DNA aptamer (quencher-CACCTGGGGGAGTATTGCGGAGGAAGG + anchor), 100 nM annealed; ATP concentration: 500 uM; one replicate.
Procedure, shortened: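 Cy3-labelled switching-strand clusters on a modified Illumina MiSeq flow-cell were annealed to 100 nM quencher-labelled ATP aptamer, imaged in selection buffer, then imaged after 15 min with 500 uM ATP at 22 °C. Five buffer/ATP cycles ran, with NaOH stripping and re-annealing between them. The fluorescence ratio is summed target-cycle over summed buffer-cycle Cy3 intensity per cluster, averaged per switch-domain sequence. Clusters outside 100-1000 RFU were excluded.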
AGCCATATCG showed a switch fluorescence ratio of 0.979. AGCCCCAGTT gave a switch fluorescence ratio of 1.14. With AGCCCCGAAC the switch fluorescence ratio was 2.72. For AGCCCCGCGA, the switch fluorescence ratio was 1.47. With AGCCCGCTCG the switch fluorescence ratio was 1.05. Work on AGCCGAATT yielded a switch fluorescence ratio of 0.983. Sequence AGCCGAGTT has a switch fluorescence ratio of 0.975. Sequence AGCCGCAGGA has a switch fluorescence ratio of 1.59. With AGCCGCCGGC the switch fluorescence ratio was 1.04. With AGCCGCTTGT the switch fluorescence ratio was 1.06. For AGCCGGCGAC, the switch fluorescence ratio was 0.966. In the case of AGCCGTGTAC, the switch fluorescence ratio is reported as 1.33. In the case of AGCCGTTCTT, the switch fluorescence ratio is reported as 1.03. For AGCCGTTTGG, the switch fluorescence ratio was 0.999. Work on AGCCTCGTAG yielded a switch fluorescence ratio of 1.01. For AGCCTCGTCT, the switch fluorescence ratio was 0.981. Work on AGCCTGACTT yielded a switch fluorescence ratio of 1.13. In the case of AGCCTGCAGA, the switch fluorescence ratio is reported as 1.07. Sequence AGCCTTACC has a switch fluorescence ratio of 1.51. AGCCTTGCGG gave a switch fluorescence ratio of 1.03. With AGCGAAATGC the switch fluorescence ratio was 1.29. Work on AGCGACGGGG yielded a switch fluorescence ratio of 0.946. Sequence AGCGACTGTG has a switch fluorescence ratio of 0.98. Sequence AGCGAGTTTA has a switch fluorescence ratio of 1. In the case of AGCGATCGGC, the switch fluorescence ratio is reported as 1.07. In the case of AGCGCAACGG, the switch fluorescence ratio is reported as 1.04. With AGCGCCAAGG the switch fluorescence ratio was 1.04. In the case of AGCGCCGTAA, the switch fluorescence ratio is reported as 1.02. With AGCGCGGTTA the switch fluorescence ratio was 0.951. In the case of AGCGGAATTC, the switch fluorescence ratio is reported as 0.988. In the case of AGCGGCCATC, the switch fluorescence ratio is reported as 0.986. AGCGGCCATG showed a switch fluorescence ratio of 0.996. AGCGGGACGT was tested, and the switch fluorescence ratio was 1.01. Work on AGCGGGATCG yielded a switch fluorescence ratio of 1.03. Sequence AGCGGGGTAG has a switch fluorescence ratio of 0.977. In the case of AGCGGGGTGG, the switch fluorescence ratio is reported as 0.926. AGCGGGGTGT gave a switch fluorescence ratio of 1.33. Work on AGCGGGTCAC yielded a switch fluorescence ratio of 0.99. For AGCGTACAAC, the switch fluorescence ratio was 1.05. Work on AGCGTATAAC yielded a switch fluorescence ratio of 1.06. Sequence AGCGTATAAG has a switch fluorescence ratio of 0.973. Work on AGCGTGAAGA yielded a switch fluorescence ratio of 0.993. Work on AGCGTTATGG yielded a switch fluorescence ratio of 1.02. For AGCGTTCAGG, the switch fluorescence ratio was 1.01. Work on AGCTAAAAAA yielded a switch fluorescence ratio of 1.01. Sequence AGCTAACACT has a switch fluorescence ratio of 1.06. Work on AGCTACAAGT yielded a switch fluorescence ratio of 1.03. Sequence AGCTAGCCAG has a switch fluorescence ratio of 0.971. For AGCTAGTTTC, the switch fluorescence ratio was 1.02. Sequence AGCTATAAAG has a switch fluorescence ratio of 1.04. With AGCTATGAAA the switch fluorescence ratio was 1.06. Work on AGCTATTCTA yielded a switch fluorescence ratio of 1.03. AGCTCAAAAG was tested, and the switch fluorescence ratio was 0.99. AGCTCAATAT was tested, and the switch fluorescence ratio was 1.17. In the case of AGCTCAGGCT, the switch fluorescence ratio is reported as 0.959. In the case of AGCTCATGGG, the switch fluorescence ratio is reported as 0.981. AGCTCCCGCA showed a switch fluorescence ratio of 1.59. AGCTCTCGGT was tested, and the switch fluorescence ratio was 0.964. For AGCTCTGTGA, the switch fluorescence ratio was 1.04. With AGCTCTTGGA the switch fluorescence ratio was 0.999. Work on AGCTGAAGAG yielded a switch fluorescence ratio of 1.02. With AGCTGCACGG the switch fluorescence ratio was 1.01. AGCTGCGCTA showed a switch fluorescence ratio of 0.972. AGCTGGAGCG was tested, and the switch fluorescence ratio was 1.03. AGCTGGAGTT gave a switch fluorescence ratio of 1.02. Work on AGCTGGGTT yielded a switch fluorescence ratio of 0.992. AGCTGGTGCG showed a switch fluorescence ratio of 1.04. AGCTGTGCCA showed a switch fluorescence ratio of 0.933. AGCTTACTG gave a switch fluorescence ratio of 1.06. In the case of AGCTTAGTGT, the switch fluorescence ratio is reported as 0.998. AGCTTCCTCA gave a switch fluorescence ratio of 2.65. Work on AGCTTGAAGT yielded a switch fluorescence ratio of 1.03. Sequence AGCTTGTATG has a switch fluorescence ratio of 0.995. AGCTTTGTCA showed a switch fluorescence ratio of 1.03. Sequence AGGAAACTCA has a switch fluorescence ratio of 1. In the case of AGGAAATAGC, the switch fluorescence ratio is reported as 0.987. AGGAAATTAC gave a switch fluorescence ratio of 1.09. Sequence AGGAACCGGG has a switch fluorescence ratio of 1. AGGAAGACTC was tested, and the switch fluorescence ratio was 1.33. AGGAAGGCTG gave a switch fluorescence ratio of 1.07. Work on AGGAAGGGCT yielded a switch fluorescence ratio of 0.93. AGGAAGTTTG was tested, and the switch fluorescence ratio was 1. With AGGAATCTCA the switch fluorescence ratio was 1.01. For AGGAATGGTA, the switch fluorescence ratio was 1.01. With AGGACAAAAC the switch fluorescence ratio was 1.03. With AGGACAAGC the switch fluorescence ratio was 1.02. Work on AGGACACCCA yielded a switch fluorescence ratio of 1.2. AGGACAGCTC gave a switch fluorescence ratio of 1.03. With AGGACCCGCT the switch fluorescence ratio was 1.09. Work on AGGACTCCCA yielded a switch fluorescence ratio of 1.23. Work on AGGACTTCAA yielded a switch fluorescence ratio of 0.978. In the case of AGGAGAAGCG, the switch fluorescence ratio is reported as 0.994. AGGAGCCATG showed a switch fluorescence ratio of 0.982. For AGGAGGCAG, the switch fluorescence ratio was 1.04. In the case of AGGAGTAGCT, the switch fluorescence ratio is reported as 0.951. AGGAGTCACT showed a switch fluorescence ratio of 0.96. Sequence AGGAGTTCCA has a switch fluorescence ratio of 1.04. In the case of AGGATAAAG, the switch fluorescence ratio is reported as 0.99. AGGATAATCG gave a switch fluorescence ratio of 0.937. In the case of AGGATAATGC, the switch fluorescence ratio is reported as 1.05. AGGATATTCC gave a switch fluorescence ratio of 1.06. Work on AGGATGAAGG yielded a switch fluorescence ratio of 0.972. For AGGATGACCT, the switch fluorescence ratio was 1.04. With AGGATTCCGG the switch fluorescence ratio was 1.02. AGGATTTCAT was tested, and the switch fluorescence ratio was 1.02. Sequence AGGATTTTAT has a switch fluorescence ratio of 1.03. With AGGCAAAATC the switch fluorescence ratio was 1.02. For AGGCACTGG, the switch fluorescence ratio was 1.06. With AGGCATACCA the switch fluorescence ratio was 1.02. In the case of AGGCATAGGC, the switch fluorescence ratio is reported as 0.997. In the case of AGGCATCAAA, the switch fluorescence ratio is reported as 0.997. With AGGCATGGCT the switch fluorescence ratio was 0.94. With AGGCCCGGAT the switch fluorescence ratio was 0.97. AGGCCCGTGA gave a switch fluorescence ratio of 0.999. Sequence AGGCCCTGGC has a switch fluorescence ratio of 1.06. In the case of AGGCCTTACT, the switch fluorescence ratio is reported as 1.11. For AGGCCTTGAG, the switch fluorescence ratio was 1. In the case of AGGCGACGTG, the switch fluorescence ratio is reported as 1.01. Work on AGGCGCGTCC yielded a switch fluorescence ratio of 0.966. With AGGCGCTCTC the switch fluorescence ratio was 1.06. Work on AGGCGGCTGC yielded a switch fluorescence ratio of 0.961. AGGCGGGTCC gave a switch fluorescence ratio of 1.03. In the case of AGGCGTACGC, the switch fluorescence ratio is reported as 1.03. AGGCGTATTA gave a switch fluorescence ratio of 1.02. In the case of AGGCGTGAGT, the switch fluorescence ratio is reported as 1.02. AGGCTAAACT was tested, and the switch fluorescence ratio was 1.03. Sequence AGGCTACCGA has a switch fluorescence ratio of 0.991. In the case of AGGCTACGTA, the switch fluorescence ratio is reported as 1.05. AGGCTAGAAA was tested, and the switch fluorescence ratio was 1.03. For AGGCTATGGC, the switch fluorescence ratio was 1.07. In the case of AGGCTCGAGA, the switch fluorescence ratio is reported as 1.03. Sequence AGGCTCGCT has a switch fluorescence ratio of 0.982. AGGCTCGGAG gave a switch fluorescence ratio of 1.01. With AGGCTGAGAA the switch fluorescence ratio was 0.977. Work on AGGCTGATGA yielded a switch fluorescence ratio of 0.979. For AGGGACAAGC, the switch fluorescence ratio was 1.01. With AGGGACGTCC the switch fluorescence ratio was 1.04. In the case of AGGGACTGTA, the switch fluorescence ratio is reported as 1.04. AGGGACTTAT gave a switch fluorescence ratio of 1.06. With AGGGAGACTT the switch fluorescence ratio was 0.991. For AGGGAGGCGT, the switch fluorescence ratio was 0.999. AGGGAGGGAC gave a switch fluorescence ratio of 0.993. AGGGAGTGAC showed a switch fluorescence ratio of 1.08. For AGGGAGTTGT, the switch fluorescence ratio was 0.965. Sequence AGGGATATGT has a switch fluorescence ratio of 1. AGGGATGTG showed a switch fluorescence ratio of 0.986. For AGGGATTGTG, the switch fluorescence ratio was 1. With AGGGCATACG the switch fluorescence ratio was 1.09. AGGGCATTTA showed a switch fluorescence ratio of 1. AGGGCCCACT was tested, and the switch fluorescence ratio was 0.994. In the case of AGGGCCGCGA, the switch fluorescence ratio is reported as 1.54. AGGGCCGCGT gave a switch fluorescence ratio of 0.977. For AGGGCCTGT, the switch fluorescence ratio was 1.04. In the case of AGGGCGTG, the switch fluorescence ratio is reported as 0.989. With AGGGCTAAT the switch fluorescence ratio was 1.04. Sequence AGGGCTAATT has a switch fluorescence ratio of 1.01. Work on AGGGGATGTA yielded a switch fluorescence ratio of 0.983. For AGGGGATTT, the switch fluorescence ratio was 1.03. Sequence AGGGGCATG has a switch fluorescence ratio of 0.993. For AGGGGCGCTG, the switch fluorescence ratio was 0.935. Work on AGGGGGCACA yielded a switch fluorescence ratio of 0.989. AGGGGGCCAC gave a switch fluorescence ratio of 1.04. Work on AGGGGGCGC yielded a switch fluorescence ratio of 0.988. In the case of AGGGGGGAG, the switch fluorescence ratio is reported as 0.952. AGGGGGGGTC was tested, and the switch fluorescence ratio was 0.981. AGGGGGTGAA was tested, and the switch fluorescence ratio was 1.02. AGGGGTGCG was tested, and the switch fluorescence ratio was 0.955. AGGGGTTTT was tested, and the switch fluorescence ratio was 1.02. AGGGTAGGCT was tested, and the switch fluorescence ratio was 1.03. With AGGGTCATTG the switch fluorescence ratio was 0.986. With AGGGTCGATT the switch fluorescence ratio was 1. AGGGTCGGTT showed a switch fluorescence ratio of 0.988. Sequence AGGGTCTGAT has a switch fluorescence ratio of 0.998. AGGGTGACAC showed a switch fluorescence ratio of 0.9. For AGGGTGATAA, the switch fluorescence ratio was 1.01. Work on AGGGTGCAGT yielded a switch fluorescence ratio of 1. AGGGTGCGTT gave a switch fluorescence ratio of 0.933. For AGGGTTATCT, the switch fluorescence ratio was 1. AGGGTTCTAA was tested, and the switch fluorescence ratio was 1. AGGGTTGCT showed a switch fluorescence ratio of 0.983. AGGGTTGTCT was tested, and the switch fluorescence ratio was 1.06. AGGGTTTCGG showed a switch fluorescence ratio of 0.977. AGGGTTTGAA showed a switch fluorescence ratio of 0.935. Sequence AGGTAAATAC has a switch fluorescence ratio of 1.8. Sequence AGGTAAATAG has a switch fluorescence ratio of 1.02. AGGTAACTCG gave a switch fluorescence ratio of 0.993. Work on AGGTAAGGGG yielded a switch fluorescence ratio of 0.997. For AGGTAATCG, the switch fluorescence ratio was 1.02. AGGTAATTTC gave a switch fluorescence ratio of 0.987. For AGGTACAGTT, the switch fluorescence ratio was 1.01. In the case of AGGTAGACGT, the switch fluorescence ratio is reported as 1.02. AGGTAGAGCG showed a switch fluorescence ratio of 0.996. AGGTATAAAG showed a switch fluorescence ratio of 0.94. In the case of AGGTATTCGG, the switch fluorescence ratio is reported as 1.01. Work on AGGTCACGGG yielded a switch fluorescence ratio of 0.97. AGGTCAGCAA gave a switch fluorescence ratio of 2.17. In the case of AGGTCAGGGC, the switch fluorescence ratio is reported as 1.03. AGGTCATGCA gave a switch fluorescence ratio of 1. Sequence AGGTCCGGCC has a switch fluorescence ratio of 0.986. For AGGTCCTCTC, the switch fluorescence ratio was 1.02. AGGTCGCGCC gave a switch fluorescence ratio of 1.01.
